# Data published in the supplement of paper PMC3334620.
# Over roughly 33,000 sequences, “E-score (-0.5 to 0.5)” has its median near -0.012; the highest 2% begin near 0.27. The list shows a part of the results.
# Target: T1, Vhr1 (UniProt P40522)
# T1 sequence: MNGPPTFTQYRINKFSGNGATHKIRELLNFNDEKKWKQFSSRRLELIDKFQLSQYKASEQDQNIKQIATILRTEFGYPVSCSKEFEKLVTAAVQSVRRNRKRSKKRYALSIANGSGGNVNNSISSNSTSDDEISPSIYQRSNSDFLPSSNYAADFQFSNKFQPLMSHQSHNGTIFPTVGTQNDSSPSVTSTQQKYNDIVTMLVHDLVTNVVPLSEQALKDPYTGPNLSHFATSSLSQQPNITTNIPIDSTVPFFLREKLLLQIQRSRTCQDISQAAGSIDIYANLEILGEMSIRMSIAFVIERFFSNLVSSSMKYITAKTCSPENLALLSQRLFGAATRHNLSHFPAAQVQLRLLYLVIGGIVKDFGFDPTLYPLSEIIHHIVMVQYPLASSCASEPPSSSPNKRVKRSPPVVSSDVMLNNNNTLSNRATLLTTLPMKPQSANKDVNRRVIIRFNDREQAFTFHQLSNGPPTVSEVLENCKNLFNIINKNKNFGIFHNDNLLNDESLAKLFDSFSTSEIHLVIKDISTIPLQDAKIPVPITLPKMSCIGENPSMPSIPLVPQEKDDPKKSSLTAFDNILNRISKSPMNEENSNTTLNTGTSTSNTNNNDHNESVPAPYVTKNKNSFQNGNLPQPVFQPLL
# Experiment: PBM E-score (8-mer binding enrichment) (E-score (-0.5 to 0.5)); higher = stronger / more preferred TF binding; most listed sequences are background and not binding sites
# Conditions: protein concentration: 200 nM; construct: GST-full length
# Method in brief: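 Masliner-normalised scans of fluorescent anti-GST signal were the basis for scoring. That signal came from GST-tagged yeast transcription factors applied at about 100-200 nM to double-stranded universal all-10-mer Agilent arrays on fresh or once-stripped slides. Each ungapped eight-base word, pooled with its reverse complement, received an E-score from the Universal PBM Analysis Suite.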
row,Sequence,PBM E-score
1,TCGAACGA,-0.0073
2,GAGGTATC,0.0778
3,CCAAATAG,0.0404
4,ACTCATAA,0.164
5,CTCTAAAG,-0.211
6,AGCTCATG,0.0505
7,ACGCAACC,-0.0121
8,AAGGGCAC,-0.107
9,GCATTGCA,-0.00744
10,CGGAGTCC,0.324
11,CGCGGCTA,-0.0223
12,ACCACCTA,0.011
13,CACTGAAC,0.109
14,ACGCGGTC,0.0101
15,ATCCCTAG,-0.117
16,CTGACGCC,-0.19
17,AAAGGTAG,-0.239
18,CTGCCCCC,-0.162
19,AACATCGT,0.112
20,CGTTGGCA,-0.111
21,CGGGTCGA,0.186
22,ACATGTGC,0.117
23,ACGGATTG,-0.0408
24,GATGCTGC,-0.116
25,AAAGGGTG,-0.109

row,Sequence,PBM E-score
1,CCTACCGA,-0.0507
2,GACCTCTC,0.00701
3,CTCGGAAG,-0.00017
4,AACTACCG,-0.186
5,CTAGAGAC,-0.229
6,GGGGTTGA,0.00987
7,GATAAACC,0.0749
8,ACTCCTTC,0.0981
9,CGGCTTTC,-0.18
10,AGCTAGAG,-0.124
11,ACCCCTCT,-0.0505
12,GTTAGGCA,-0.108
13,CGCAATCC,-0.0979
14,AATTACTC,0.0905
15,ACTGTCAG,0.101
16,ACCGTGTG,0.155
17,GAGGTCTA,-0.0738
18,AGTAGCAG,-0.00936
19,ATCGCGAG,0.169
20,GAAGTTAC,0.0846
21,GATTGTAC,-0.113
22,CCAATACA,-0.00307
23,ACTTATAA,0.0164
24,TCTGAGAA,-0.131
25,ATAAGTCA,0.242

row,Sequence,PBM E-score
1,CAAGCCCG,-0.136
2,AGGTGTGG,0.0849
3,ACCTGTGA,0.259
4,GTCTAGGA,-0.0176
5,GTATTTTA,-0.074
6,AGATGGCG,0.058
7,CACCATAA,0.103
8,ATCATTCG,0.269
9,TACCAGCA,0.0525
10,GGGAGCAC,-0.135
11,ACGGTACA,0.126
12,AATGGTCG,-0.00024
13,AAGGGGGT,-0.111
14,CAGTCCTC,-0.135
15,ATCCCGTC,0.0792
16,CAAGCCGC,-0.0978
17,GCTTTGTA,0.131
18,ATTGCATG,0.214
19,CCCTGCCC,-0.116
20,AGTAAATG,0.0178
21,AACGATCC,0.0159
22,ACTTTGAG,0.0115
23,GACGGCCA,-0.0928
24,ATAAAGAG,-0.102
25,AAACGTGT,-0.191

row,Sequence,PBM E-score
1,CACTGATG,0.0443
2,GCGCCGTA,-0.0405
3,TCATGAGA,0.101
4,CAAAGGAG,-0.0104
5,CATGACGA,0.22
6,GACACTCC,0.148
7,CCAGGAGC,-0.139
8,ATCCAATG,-0.0286
9,CTCATGGA,0.0273
10,GGGATGTA,0.0546
11,AAGAGACC,-0.183
12,GTATTGAC,0.172
13,ACGACCGA,0.0413
14,GGGGAAAC,0.115
15,CCTTTTAA,-0.244
16,CTGCGATA,-0.0648
17,AAGAGCCA,0.175
18,GACACATC,0.196
19,GATATAGC,0.00139
20,AGATACGG,-0.0974
21,TAAAGGGA,-0.0415
22,AAGTCCGA,-0.205
23,GTTTCTCA,-0.136
24,TAGAGGCA,-0.188
25,CACCATCA,0.0797

row,Sequence,PBM E-score
1,AAGCTGGA,0.00624
2,AACTGGTG,0.124
3,CAAGCCCA,-0.0389
4,CAATCGAA,0.0913
5,AAATTTTA,-0.274
6,GCGCCACA,0.0101
7,AGACGCCC,0.035
8,CCAAAATC,0.142
9,AACGTGAT,0.0785
10,CCGATTGA,0.0861
11,CCATGGCG,0.0959
12,CTTAAAGC,-0.306
13,CCACTGGA,-0.0245
14,ATCCTGAG,-0.0118
15,ATGTGCCA,6e-05
16,CCTATCCC,0.121
17,AATTACAG,-0.0043
18,AGCAGTAT,0.0788
19,AACGTATT,-0.00015
20,GGGGAGAC,-0.0539
21,CAGCTAAA,-0.119
22,CAACATGA,0.3
23,GCCTTTCC,-0.323
24,GCATATCA,0.115
25,GCGTTAAA,-0.0751

row,Sequence,PBM E-score
1,AAACCAAT,0.124
2,GGAAACCC,-0.0855
3,AACTCAGA,0.0696
4,AAAATGCA,-0.161
5,CCTTTCCG,-0.181
6,CTTCACGC,-0.117
7,CACAGTGC,0.136
8,CTCCCGAA,-0.169
9,ATCCACTA,0.0617
10,AAGTAGTC,0.231
11,CAAGGCCG,-0.0522
12,TCAGAGGA,-0.128
13,CGCTGCAG,-0.139
14,AGCCACTC,0.0923
15,GGCATAGA,0.21
16,GATGTTAC,-0.0887
17,CGAAAAAA,-0.137
18,ATCCCAGC,0.0484
19,CTTACCTC,-0.218
20,ACGCTGCG,-0.128
21,GCAGACTA,0.00135
22,CATGTTCG,0.0242
23,GGGATGGA,-0.0135
24,TAACGTGA,-0.0922
25,CCGAAAGC,-0.273

row,Sequence,PBM E-score
1,CGTCCCTC,-0.112
2,CCGTTTCC,-0.0553
3,AAGTGGCT,0.111
4,CACACTGC,0.135
5,CAGTTCCA,0.0226
6,AGTCCTAT,0.135
7,CCTCAACA,0.0243
8,CGCTCAAG,-0.257
9,TCCCAACA,-0.0496
10,CGAAGCAA,-0.158
11,ACCCAGTC,0.204
12,AAGGTGAA,0.0584
13,AGTCAAGA,0.0425
14,ATTTGCTA,-0.0496
15,AAAATTTT,-0.351
16,AACCGTAG,-0.271
17,GTAGAAAC,-0.108
18,CGAACCAA,-0.0249
19,AAAGTTCG,-0.228
20,GGACTTAA,-0.181
21,AAAATCAC,0.154
22,CCCGCGAG,0.105
